Assay results: patent US20240392004A1 (IMMUNOWAKE, published 2024)

What was measured:
Experiment in all cases: cell-based or functional assay
[1] = target: human PD-1 on cells (HEK-PD-1 reporter cells; activated PBMC) (human, UniProt Q15116 25-288)
[2] = target: T1, human IL-2 receptor (IL-2Rα, IL-2Rβ, IL-2Rγ) (human, UniProt P01589 22-272; P14784 27-551; P31785 23-369)
T1 sequence (looked up) 1: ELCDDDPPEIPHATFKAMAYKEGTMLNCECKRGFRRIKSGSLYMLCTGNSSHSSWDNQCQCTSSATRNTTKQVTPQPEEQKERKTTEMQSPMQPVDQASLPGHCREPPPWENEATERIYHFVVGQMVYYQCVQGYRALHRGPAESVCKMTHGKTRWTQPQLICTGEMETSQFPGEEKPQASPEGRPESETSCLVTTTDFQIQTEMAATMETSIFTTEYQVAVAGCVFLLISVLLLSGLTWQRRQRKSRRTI
T1 sequence (looked up) 2: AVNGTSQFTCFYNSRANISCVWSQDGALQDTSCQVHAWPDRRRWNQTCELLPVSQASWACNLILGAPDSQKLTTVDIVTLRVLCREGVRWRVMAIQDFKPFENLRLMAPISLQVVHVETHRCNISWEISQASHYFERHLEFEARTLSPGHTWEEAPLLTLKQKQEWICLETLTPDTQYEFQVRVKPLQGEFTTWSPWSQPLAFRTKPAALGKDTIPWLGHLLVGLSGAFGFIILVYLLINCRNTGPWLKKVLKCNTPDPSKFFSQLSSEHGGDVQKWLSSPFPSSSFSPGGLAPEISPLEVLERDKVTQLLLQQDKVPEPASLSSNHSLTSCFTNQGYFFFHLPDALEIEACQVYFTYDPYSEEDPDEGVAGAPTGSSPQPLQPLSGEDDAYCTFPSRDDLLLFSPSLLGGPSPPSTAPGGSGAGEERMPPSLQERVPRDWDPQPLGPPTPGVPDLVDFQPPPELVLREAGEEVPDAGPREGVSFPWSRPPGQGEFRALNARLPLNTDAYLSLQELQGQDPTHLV
T1 sequence (looked up) 3: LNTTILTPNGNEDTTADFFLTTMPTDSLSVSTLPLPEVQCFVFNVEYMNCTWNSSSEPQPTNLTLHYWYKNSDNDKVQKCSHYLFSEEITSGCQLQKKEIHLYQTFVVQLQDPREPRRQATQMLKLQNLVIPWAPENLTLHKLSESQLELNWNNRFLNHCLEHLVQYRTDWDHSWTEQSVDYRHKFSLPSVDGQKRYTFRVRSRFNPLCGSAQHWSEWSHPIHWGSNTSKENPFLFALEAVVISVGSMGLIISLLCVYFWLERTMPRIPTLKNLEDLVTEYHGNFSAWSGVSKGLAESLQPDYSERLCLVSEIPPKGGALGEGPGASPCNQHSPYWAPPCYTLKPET

[3] = target: human IL-12 receptor complex (IL-12Rβ1 and IL-12Rβ2) (human, UniProt P42701 24-662; Q99665 24-862)

Sequence of UniProt Q15116 (Q15116 25-288): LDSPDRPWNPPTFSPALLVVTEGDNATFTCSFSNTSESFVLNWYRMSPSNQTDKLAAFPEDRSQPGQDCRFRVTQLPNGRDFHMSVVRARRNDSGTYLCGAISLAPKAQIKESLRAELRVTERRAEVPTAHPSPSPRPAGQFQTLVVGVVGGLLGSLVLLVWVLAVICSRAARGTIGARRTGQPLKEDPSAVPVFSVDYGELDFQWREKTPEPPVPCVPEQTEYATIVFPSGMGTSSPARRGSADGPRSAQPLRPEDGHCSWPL

B2: CTLA-4-Fc/IL-12(F60A) immunomodulatory molecule (IL-12 at C-terminus) (Fc fusion)
chain 1: [omitted - about 120 residues][omitted - about 250 residues]
chain 2: [omitted - about 120 residues]SGDKTHTCPPCPAPEDEGGPSVFLFPPKPKDTLMISRTPEVTCVVVDVSHEDPEVKFNWYVDGVEVHNAKTKPREEQYNSTYRVVSVLTVLHQDWLNGKEYKCKVSNKALPAPIEKTISKAKGQPREPQVYVYPPSREEMTKNQVSLTCLVKGFYPSDIAVEWESNGQPENNYKTTPPVLDEDGSFALVSKLTVDKSRWQQGNVFSCSVMHEALHNHYTQKSLSLSPGKGGGGSGGGGSGGGGSIWELKKDVYVVELDWYPDAPGEMVVLTCDTPEEDGITWTLDQSSEVLGSGKTLTIQVKEAGDAGQYTCHKGGEVLSHSLLLLHKKEDGIWSTDILKDQKEPKNKTFLRCEAKNYSGRFTCWWLTTISTDLTFSVKSSRGSSDPQGVTCGAATLSAERVRGDNKEYEYSVECQEDSACPAAEESLPIEVMVDAVHKLKYENYTSSFFIRDIIKPDPPKNLQLKPLKNSRQVEVSWEYPDTWSTPHSYFSLTFCVQVQGKSKREKKDRVFTDKTSATVICRKNASISVRAQDRYYSSSWSEWASVPCSGGGGSGGGGSGGGGSGGGGSGRNLPVATPDPGMFPCLHHSQNLLRAVSNMLQKARQTLEFYPCTSEEIDHEDITKDKTSTVEACLPLELTKNESCLNSRETSFITNGSCLASRKTSFMMALCLSSIYEDLKMYQVEFKTMNAKLLMDPKRQIFLDQNMLAVIDELMQALNFNSETVPQKSSLEEPDFYKTKIKLCILLHAFRIRAVTIDRVMSYLNAS
Biological activity of IL-12, HEK-PD-1-IL-12 reporter assay, % of rIL-12 [3]: 2.3%

B4: IL-12(E59A/F60A)/CTLA-4-Fc immunomodulatory molecule (IL-12 at hinge) (Fc fusion)
chain 1: [omitted - about 120 residues][omitted - about 250 residues]
chain 2: [omitted - about 120 residues]SGIWELKKDVYVVELDWYPDAPGEMVVLTCDTPEEDGITWTLDQSSEVLGSGKTLTIQVKAAGDAGQYTCHKGGEVLSHSLLLLHKKEDGIWSTDILKDQKEPKNKTFLRCEAKNYSGRFTCWWLTTISTDLTFSVKSSRGSSDPQGVTCGAATLSAERVRGDNKEYEYSVECQEDSACPAAEESLPIEVMVDAVHKLKYENYTSSFFIRDIIKPDPPKNLQLKPLKNSRQVEVSWEYPDTWSTPHSYFSLTFCVQVQGKSKREKKDRVFTDKTSATVICRKNASISVRAQDRYYSSSWSEWASVPCSGGGGSGGGGSGGGGSGGGGSGRNLPVATPDPGMFPCLHHSQNLLRAVSNMLQKARQTLEFYPCTSEEIDHEDITKDKTSTVEACLPLELTKNESCLNSRETSFITNGSCLASRKTSFMMALCLSSIYEDLKMYQVEFKTMNAKLLMDPKRQIFLDQNMLAVIDELMQALNFNSETVPQKSSLEEPDFYKTKIKLCILLHAFRIRAVTIDRVMSYLNASDKTHTCPPCPAPEDEGGPSVFLFPPKPKDTLMISRTPEVTCVVVDVSHEDPEVKFNWYVDGVEVHNAKTKPREEQYNSTYRVVSVLTVLHQDWLNGKEYKCKVSNKALPAPIEKTISKAKGQPREPQVYVYPPSREEMTKNQVSLTCLVKGFYPSDIAVEWESNGQPENNYKTTPPVLDEDGSFALVSKLTVDKSRWQQGNVFSCSVMHEALHNHYTQKSLSLSPGK
Biological activity of IL-12, HEK-PD-1-IL-12 reporter assay, % of rIL-12 [3]: 0.3%

Continued, values first:

Percent IL-2 signal transduction (HEK-PD-1-IL-2 reporter assay) [1]: 0%
Percent IL-2 signal transduction (HEK-IL-2 reporter assay) [2]: 0%
B1: parental PD-L2-Fc fusion protein (Fc fusion)
chain: LFTVTVPKELYIIEHGSNVTLECNFDTGSHVNLGAITASLQKVENDTSPHRERATLLEEQLPLGKASFHIPQVQVRDEGQYQCIIIYGVAWDYKYLTLKVKASYRKINTHILKVPETDEVELTCQATGYPLAEVSWPNVSVPANTSHSRTPEGLYQVTSVLRLKPPPGRNFSCVFWNTHVRELTLASIDLQSQMEPRTHPT[omitted - human IgG1 Fc with changes]

Biological activity of IL-12, HEK-PD-1-IL-12 reporter assay, % of rIL-12 [3]: 0.2%
B3: IL-12(F60A)/CTLA-4-Fc immunomodulatory molecule (IL-12 at hinge) (Fc fusion)
chain 1: [omitted - about 120 residues][omitted - about 250 residues]
chain 2: [omitted - about 120 residues]SGIWELKKDVYVVELDWYPDAPGEMVVLTCDTPEEDGITWTLDQSSEVLGSGKTLTIQVKEAGDAGQYTCHKGGEVLSHSLLLLHKKEDGIWSTDILKDQKEPKNKTFLRCEAKNYSGRFTCWWLTTISTDLTFSVKSSRGSSDPQGVTCGAATLSAERVRGDNKEYEYSVECQEDSACPAAEESLPIEVMVDAVHKLKYENYTSSFFIRDIIKPDPPKNLQLKPLKNSRQVEVSWEYPDTWSTPHSYFSLTFCVQVQGKSKREKKDRVFTDKTSATVICRKNASISVRAQDRYYSSSWSEWASVPCSGGGGSGGGGSGGGGSGGGGSGRNLPVATPDPGMFPCLHHSQNLLRAVSNMLQKARQTLEFYPCTSEEIDHEDITKDKTSTVEACLPLELTKNESCLNSRETSFITNGSCLASRKTSFMMALCLSSIYEDLKMYQVEFKTMNAKLLMDPKRQIFLDQNMLAVIDELMQALNFNSETVPQKSSLEEPDFYKTKIKLCILLHAFRIRAVTIDRVMSYLNASDKTHTCPPCPAPEDEGGPSVFLFPPKPKDTLMISRTPEVTCVVVDVSHEDPEVKFNWYVDGVEVHNAKTKPREEQYNSTYRVVSVLTVLHQDWLNGKEYKCKVSNKALPAPIEKTISKAKGQPREPQVYVYPPSREEMTKNQVSLTCLVKGFYPSDIAVEWESNGQPENNYKTTPPVLDEDGSFALVSKLTVDKSRWQQGNVFSCSVMHEALHNHYTQKSLSLSPGK

One block for each binder: values may come before it.
